“And” between values parts separate entries of the source, which are not always exact repeats. Equal values may be shown once. This list was built around the results that the source calls inconclusive (neither active nor inactive); the mix of calls is not that of the screen. For some of these results: Where the call is inconclusive, the potency comes from a doubtful curve fit. The source made the active and inactive calls. The call rests on the fitted dose curve; in most records, active means well fitted curve in the direction sought with a large enough effect; inconclusive means small, poorly fitted or top-dose-only effect, or another doubt; inactive means no such curve, though single readings can be large; an effect the other way counts as inactive or inconclusive.
Columns and labels:
[1] = qHTS of pediatric cancer cell lines to identify multiple opportunities for drug repurposing: Primary screen for OHS-50 cells (AID 1347103); settings: OHS-50 osteosarcoma viability, CellTiter-Glo luminescence, 48 h; activity change, negative = cytotoxic: at 57.3 µM (top of the series); further: nearly all actives have a fitted effect of over 40% in size; further: potency means the concentration at half of the fitted maximal effect
Outline: (§1)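 Cells (500-1,000/well) rested 5 h, then received compounds for 48 h; metabolically active cells were measured by CellTiter-Glo luminescence. Final concentrations spanned up to 46 µM (MIPE, 11-point) or 0.59 nM-46 µM (NPC, 8-point) in primary screens, 11-point in follow-ups.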

[2] = qHTS of pediatric cancer cell lines to identify multiple opportunities for drug repurposing: Primary screen for Rh30 cells (AID 1347107); further: potency means the concentration at half of the fitted maximal effect; nearly all actives have a fitted effect of over 75% in size
Outline: as §1

[3] = qHTS of pediatric cancer cell lines to identify multiple opportunities for drug repurposing: Primary screen for Rh41 cells (AID 1347108); further: nearly all actives have a fitted effect of over 70% in size; further: potency means the concentration at half of the fitted maximal effect;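 on activity change, negative = cytotoxic: luminescence drop marks cytotoxic hits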
Outline: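 Quantitative HTS format: each compound titrated (MIPE 11 points from 0.78 nM, NPC 8 points from 0.59 nM) onto cells plated 5 hours earlier. After 48 h at 37 degrees C, CellTiter-Glo luminescence was recorded.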

[4] = qHTS of pediatric cancer cell lines to identify multiple opportunities for drug repurposing: Confirmatory screen for SK-N-MC cells (AID 1347111);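 further: potency means the concentration at half of the fitted maximal effect; cells exposed to compound for 48 h before the readout; nearly all actives have a fitted effect of over 70% in size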
Outline: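 Seed 500-1,000 cells/well; rest 5 h at 37 degrees C. Pin-transfer compounds, 11-point titration. Incubate 48 h. Add CellTiter-Glo, 15 min RT, read luminescence.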

[5] = qHTS of pediatric cancer cell lines to identify multiple opportunities for drug repurposing: Confirmatory screen for NB1643 cells (AID 1347109); settings: NB1643 neuroblastoma cell viability; activity change, negative = cytotoxic: at 45.9 µM (top of the series) unless noted; further: potency means the concentration at half of the fitted maximal effect; nearly all actives have a fitted effect of over 45% in size
Outline: as §1

[6] = qHTS of pediatric cancer cell lines to identify multiple opportunities for drug repurposing: Confirmatory screen for A673 cells (AID 1347110);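 further: potency means the concentration at half of the fitted maximal effect; cells exposed to compound for 48 h before the viability read; nearly all actives have a fitted effect of over 65% in size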
Outline: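 Viability was read as ATP luminescence (CellTiter-Glo) after 48 h of compound exposure at 37 C in A673 cells seeded at 500-1,000/well. Titrations reached 46 uM final, with 11 points in the confirmatory screen. Concentration-response curves were fitted directly.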

[7] = qHTS of pediatric cancer cell lines to identify multiple opportunities for drug repurposing: Confirmatory screen for BT-12 cells (AID 1347112); further: nearly all actives have a fitted effect of over 55% in size
Outline: as §1
Tags describe the fitted curve by direction and shape.

CC(=O)OC1(c2ccccc2)CCN(CCc2ccccc2)CC1
Potency [1]: active: 32.4 µM
Potency [2]: inconclusive: 49.5 µM [cytotoxic, partial curve, poor fit]

C=C1C[C@H]2[C@H]3CCC(=O)[C@@]3(C)CC[C@@H]2[C@@]2(C)C=CC(=O)C=C12
Potency [1]: inconclusive: 43.2 µM [cytotoxic, single point]
Potency [3]: inconclusive: 29.6 µM [cytotoxic, partial curve, poor fit]

CC(C)c1c(CN(C)C(C)Cc2ccccc2)n(C)n(-c2ccccc2)c1=O (centres undefined)
Potency [1]: inactive
Potency [3]: inactive

C[C@H]1C(=O)O[C@@H]2CCN3CC=C(COC(=O)[C@](C)(O)[C@]1(C)O)[C@H]23
Potency [1]: inactive
Potency [3]: inactive

CCCCOC(=O)c1ccccc1C(=O)OCc1ccccc1
Potency [1]: inconclusive: 28.2 µM [cytotoxic, partial curve]
Potency [3]: inactive

CCC(=O)OC1CCC2C3CCC4=CC(=O)CC[C@@]4(C)C3CC[C@]12C (some centres undefined)
Potency [1]: inconclusive: 24.3 µM [cytotoxic, partial curve, poor fit]
Potency [4]: inconclusive: 26.1 µM [cytotoxic, single point]

CC(CCc1ccccc1)NC(C)C(O)c1ccc(O)cc1 (centres undefined)
Potency [1]: inconclusive: 21.9 µM [cytotoxic, partial curve, poor fit]
Potency [3]: inconclusive: 9.44 µM [cytotoxic, partial curve, poor fit]

O=C(O)CCCc1ccc(N(CCCl)CCCl)cc1
Potency [1]: inconclusive: 19.5 µM [cytotoxic, single point] and inconclusive: 34.3 µM [cytotoxic, single point]
Potency [5]: inconclusive: 23.3 µM [cytotoxic, single point]
Potency [6]: inconclusive: 26.1 µM [cytotoxic, single point]
Potency [4]: active: 23.3 µM
Potency [7]: inactive
